The whole screen tested about 48,000 compounds, of which about 1,200 (2.5%) were called active. About 2% were inconclusive and are not listed.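 The calls were made as follows: active = activation of at least 60% and not above a set upper limit (about 1 call in 100 departs from these limits); inconclusive = activation of 40% to 60%, or above that upper limit; inactive = activation under 40%.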 This is one part of the list.

Sequence of UniProt O75388 (O75388 whole entry, looked up): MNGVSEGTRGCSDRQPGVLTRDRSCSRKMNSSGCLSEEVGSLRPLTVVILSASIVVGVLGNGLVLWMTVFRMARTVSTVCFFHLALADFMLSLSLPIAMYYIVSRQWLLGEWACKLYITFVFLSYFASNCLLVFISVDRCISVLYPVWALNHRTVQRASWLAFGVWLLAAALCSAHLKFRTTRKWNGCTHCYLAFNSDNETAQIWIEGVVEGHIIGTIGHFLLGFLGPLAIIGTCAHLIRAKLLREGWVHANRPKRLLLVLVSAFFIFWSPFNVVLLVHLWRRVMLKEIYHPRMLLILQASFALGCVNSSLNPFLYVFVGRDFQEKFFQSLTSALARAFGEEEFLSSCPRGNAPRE

The assay addresses Probable G-protein coupled receptor 32 (Homo sapiens) (UniProt O75388). Briefly: qHTS for Agonists of Human Resolvin D1 Receptor DRV1. Also: 0% is about no effect. Particulars: CHO-K1 GPR32 beta-arrestin PathHunter luminescence, 90 min; at 76.9 µM; hits give high values; zero percent set by DMSO-only wells. In a few lines:
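Cells are plated overnight, treated with compounds in DMSO for 90 minutes at 37 °C, and developed with PathHunter detection reagent for 1 hour before luminescence is read; signal reflects beta-arrestin binding to GPR32 in engineered CHO-K1 cells.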
`COc1cccc(NC(=O)CSC2=Nc3ccccc3C3=NC(CC(=O)NCc4cccs4)C(=O)N23)c1` (stereo not drawn): the activation is inactive: -13.4%.
For `CC(=O)N1CCN(c2nc3c(F)cc(F)cc3s2)CC1`, the activation is inactive: -3.89%.
`COc1ccc(Cn2c(CNC(=O)Cc3cccc([N+](=O)[O-])c3)nc3cccnc32)cc1`: the activation is inactive: -32%.
The figure for `Cc1cccc(N2CCN(C(=O)c3cc4c(=O)[nH]c5ccc(C)cc5c4s3)CC2C)c1` (stereo not drawn) is inactive: -2.56%; for `COc1ccc(CNC(=O)CSCc2cnn(-c3ccccc3)c2-n2cccc2)cc1OC` it is inactive: 12.2%; for `Cc1ccc(OCCCn2c(-c3ccc(Cl)cc3)nc3ccccc3c2=O)c(C)c1` it is inactive: -6.98%.
As to `Clc1ccc(-n2c(Cc3ccccc3)nnc2SCc2nc(-c3cccs3)no2)cc1`, the activation was inactive: -23.2%.
The figure for `COc1ccc(NC(=O)c2oc3ccccc3c2NC(=O)C2CCCCC2)c(OC)c1` is inactive: -3.86%; for `Cc1cccc(-n2c(=O)c3c4c(sc3n3c(C)nnc23)CCCC4)c1` it is inactive: -4.15%.
In the case of `Nc1c(C(=O)Nc2ccccc2)sc2nc3c(cc12)CN(Cc1ccccc1)CC3`, the activation was inactive: -5.19%.
As to `Cc1ccc(NC(=O)C2CCCN(S(=O)(=O)c3c(C)noc3C)C2)cc1` (stereo not drawn), the activation was inactive: -6.08%.
As to `NS(=O)(=O)c1ccc(C(=O)O)cc1`, the activation was inactive: -2.1%.
`CCOC(=O)c1scc(-c2ccc(C)cc2)c1S(=O)(=O)Nc1cc(OC)ccc1OC`: the activation is inactive: 0.116%.
Regarding `CCCCN(C)C(=O)c1ccc2c(c1)N(Cc1cccc(F)c1)C(=O)c1ccccc1S2`, the activation was inactive: -53.3%.
With `CCOc1cc(C#N)c(-n2nnc3c(sc4nc(C)cc(C)c43)c2=O)cc1OCC`, the activation is inactive: 1.17%.
On to `Cc1cc(C)c(/C=C/c2onc(C)c2S(=O)(=O)N2CCC(C(=O)NCCc3ccccc3)CC2)c(C)c1`, for which the activation is inactive: -19.7%.
As for `Cc1cccc(N(CC(=O)NCCSCc2ccccc2)S(=O)(=O)c2ccccc2)c1C`, the activation was inactive: -0.289%.
For `O=C(Cn1c(=O)c2cccn2c2ccccc21)NCc1ccccc1F`, the activation is inactive: -5.39%.
The same measure for `COC(=O)c1ccc(NC(=O)Cn2cnc3c2c(=O)n(C)c(=O)n3C)cc1`: inactive: -10.9%.
The figure for `CCc1cccc(C)c1NC(=O)C1CCCN1S(=O)(=O)c1cccc2nsnc12` (stereo not drawn) is inactive: -6.81%.
In the case of `CCn1c(=O)c(=O)n(CC)c2cc(S(=O)(=O)Nc3ccc(C)cc3)ccc21`, the activation is inactive: -3.7%.
The figure for `CCCC(=O)N1CCN(c2nc3ccc(F)cc3s2)CC1` is inactive: 6.27%.
Turning to `Cc1ccc(C(=O)c2cn(Cc3ccccc3)c3nc(C)ccc3c2=O)cc1`, the activation was inactive: 47.2%.

Source of the values: PubChem BioAssay AID1346428 (National Center for Advancing Translational Sciences (NCATS), 2018).
